Test results taken from PubChem BioAssay (NCI).
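How tested: cells in 96-well plates exposed to compound for 48 hours at five concentrations. GI50 marks 50% less growth.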 Not every entry of the source has a single result; some have several. The list is limited to them. The source may hold further records. For some of these results: A record mostly stands for its own series of concentrations, not given here; some values may only mark the edge of a range.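 At the TGI there is no net growth.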 For some of these results: The values listed for one entry are repeated measurements across runs, samples, wells, individuals or studies. Marks in square brackets tell the records apart. Letters hold for one entry only.

Assays:
Assay in all cases: NCI tumour cell line growth inhibition, 48 h
HOP-62 NSCLC = system: HOP-62 NSCLC
MALME-3M melanoma = system: MALME-3M melanoma
SK-MEL-2 melanoma = system: SK-MEL-2 melanoma
OVCAR-8 ovarian = system: OVCAR-8 ovarian
NCI-H460 lung = system: NCI-H460 lung
NCI/ADR-RES ovarian = system: NCI/ADR-RES ovarian
IGROV1 ovarian = system: IGROV1 ovarian
SNB-19 CNS = system: SNB-19 CNS
MCF7 breast = system: MCF7 breast
SW-620 colon = system: SW-620 colon
SN12C renal = system: SN12C renal
OVCAR-5 ovarian = system: OVCAR-5 ovarian
HCT-15 colon = system: HCT-15 colon
SNB-75 CNS = system: SNB-75 CNS
MOLT-4 leukemia = system: MOLT-4 leukemia
NCI-H23 lung = system: NCI-H23 lung
T-47D breast = system: T-47D breast
NCI-H522 lung = system: NCI-H522 lung

Row | Compound | TGI (HOP-62 NSCLC) | TGI (MALME-3M melanoma) | TGI (SK-MEL-2 melanoma) | TGI (OVCAR-8 ovarian) | TGI (NCI-H460 lung) | TGI (NCI/ADR-RES ovarian) | TGI (IGROV1 ovarian) | TGI (SNB-19 CNS) | TGI (MCF7 breast) | TGI (SW-620 colon) | TGI (SN12C renal) | TGI (OVCAR-5 ovarian) | TGI (HCT-15 colon) | TGI (SNB-75 CNS) | GI50 (MOLT-4 leukemia) | TGI (NCI-H23 lung) | TGI (T-47D breast) | TGI (NCI-H522 lung)
1 | CC(C)SC1SCC2C(=O)N(C)C3(CC3C)C(=O)OCC(NC(=O)c3nc4ccccc4cc3O)C(=O)NC(C)C(=O)N(C)C1C(=O)N(C)C1(CC1C)C(=O)OCC(NC(=O)c1nc3ccccc3cc1O)C(=O)NC(C)C(=O)N2C (centres undefined) | < 0.1 nM and 421 nM | < 0.1 nM and > 100 µM | < 0.1 nM and > 100 µM | < 0.1 nM and 1.79 µM | < 0.1 nM and 70.6 nM | 76.7 nM and > 100 µM | 3.75 nM and 1.11 µM | 266 nM and > 100 µM | < 0.1 nM and > 100 µM | < 0.1 nM and > 100 µM | < 0.1 nM and > 100 µM | < 0.1 nM and 1.3 µM | 3.41 nM and > 100 µM | – | – | – | – | –
2 | Cc1c2ncccc2c(C)c2c1[nH]c1ccc(O)cc12 | – | – | – | – | – | – | – | – | – | – | – | – | – | 17.3 µM and 500 µM | 5.1 µM and 377 nM | 26.2 µM and 277 µM | 25.1 µM and 500 µM | –
3 | O=C1NC(=O)[C@@H](c2cn3c4c(cccc24)CCC3)[C@@H]1c1c[nH]c2ccccc12 | – | – | – | – | – | – | – | – | – | – | – | – | – | > 10 µM [sample A, 1 test] and 638 nM [sample B, 1 test] | – | – | – | 813 nM [sample A, mean of 2 tests] and 10.8 µM [sample B, mean of 2 tests]
